The whole screen tested about 310,000 compounds, of which about 14,000 (4.5%) showed an effect of 50% or more. The effect is printed as a negative number. This is one part of the list.
Target: human ether-à-go-go-related gene (hERG) potassium channel (human, UniProt Q12809)
Assay: primary screen, population patch clamp on CHO cells stably expressing hERG
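Also: peak tail current of the secondary pulse compared with the same well before compound.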

Sequence of human ether-à-go-go-related gene (hERG) potassium channel (Q12809 whole entry, looked up): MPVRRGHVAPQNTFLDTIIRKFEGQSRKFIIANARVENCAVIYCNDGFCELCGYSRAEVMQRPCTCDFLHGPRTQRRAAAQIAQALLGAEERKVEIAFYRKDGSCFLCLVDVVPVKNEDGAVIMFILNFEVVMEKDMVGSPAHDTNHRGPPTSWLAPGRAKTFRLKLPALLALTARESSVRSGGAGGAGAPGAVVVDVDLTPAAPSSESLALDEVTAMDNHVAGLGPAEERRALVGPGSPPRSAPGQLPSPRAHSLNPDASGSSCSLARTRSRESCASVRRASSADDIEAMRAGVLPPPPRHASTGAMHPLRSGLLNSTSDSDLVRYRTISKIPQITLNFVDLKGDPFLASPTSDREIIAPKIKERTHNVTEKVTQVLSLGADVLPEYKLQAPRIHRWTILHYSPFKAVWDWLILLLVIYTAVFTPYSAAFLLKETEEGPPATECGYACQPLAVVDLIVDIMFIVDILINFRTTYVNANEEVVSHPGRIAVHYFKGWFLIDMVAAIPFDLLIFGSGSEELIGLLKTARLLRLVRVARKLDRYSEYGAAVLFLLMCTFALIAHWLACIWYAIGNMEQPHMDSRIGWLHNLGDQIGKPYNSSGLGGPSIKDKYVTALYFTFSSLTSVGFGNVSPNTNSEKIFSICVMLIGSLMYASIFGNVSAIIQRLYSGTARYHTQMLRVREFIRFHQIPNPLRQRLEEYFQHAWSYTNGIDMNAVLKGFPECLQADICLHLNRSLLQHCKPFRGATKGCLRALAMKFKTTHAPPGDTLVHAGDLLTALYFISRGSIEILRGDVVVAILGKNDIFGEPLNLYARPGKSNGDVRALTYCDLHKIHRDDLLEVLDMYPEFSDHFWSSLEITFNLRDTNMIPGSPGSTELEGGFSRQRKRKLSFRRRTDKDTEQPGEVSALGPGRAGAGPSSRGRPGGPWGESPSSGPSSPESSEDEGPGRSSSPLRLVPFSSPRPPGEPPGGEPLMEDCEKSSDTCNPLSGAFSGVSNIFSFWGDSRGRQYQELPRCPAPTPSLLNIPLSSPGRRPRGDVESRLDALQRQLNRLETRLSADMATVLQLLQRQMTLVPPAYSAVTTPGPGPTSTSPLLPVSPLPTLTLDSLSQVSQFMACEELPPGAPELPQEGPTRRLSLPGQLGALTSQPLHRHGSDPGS

Row | Compound | hERG current change (%, negative = inhibition) at 10uM
1 | O=C(NN1C(=O)C2C3c4ccccc4C(c4ccccc43)C2C1=O)c1ccccc1 (stereo not shown) | 11.7%
2 | COc1ccc(-c2oc3ccc(-c4cc(OC)c(OC)c(OC)c4)cc3c2C(=O)c2ccc(OC)nc2)cc1 | 13.6%
3 | COc1ccccc1NC(=O)c1cc(Br)ccc1Cl | 2.96%
4 | COc1ccccc1CN(C)C(=O)CNC(=O)c1cccc(Cl)c1 | 9.69%
5 | Cc1cc(NC(=O)Nc2ccccc2Cl)no1 | 8.67%
6 | COc1ccc(CCN2CC(C(=O)N3CCCCCC3)CCC2=O)cc1 (stereo not shown) | 10.6%
7 | O=C(COC(=O)c1ccc(Br)o1)NCc1ccco1 | 3.53%
8 | c1csc(-c2cc(N3CCCCC3)c3ccccc3n2)c1 | 17%
9 | Nn1c(SCC(=O)Nc2ccccc2)nnc1C1CCCCC1 | -1.45%
10 | O=C(c1ccc2c3c(cccc13)CC2)C1CCCN(Cc2cccnc2)C1 (stereo not shown) | -63.4%
11 | C/C(=N\NC(=O)c1ccc(Cl)c(Cl)c1)c1ccc(Br)s1 | -4.57%
12 | CCOc1ccc2nc(N(CCN(CC)CC)C(=O)/C=C/c3cccs3)sc2c1.Cl | 9.88%
13 | Nc1nnnn1/N=C/c1ccc(F)cc1 | 29.7%
14 | COc1cc(C(C#N)N2CCC(c3ccccc3)=N2)ccc1O (stereo not shown) | -10.4%
15 | CCCn1c(SCC(=O)Nc2cccc(C(=O)OCC)c2)nnc1-c1ccoc1C | -2.61%
16 | O=S(=O)(Cc1ccccc1)c1ccccc1-c1nnc(-c2ccccc2)o1 | 12.4%
17 | COc1ccc(C(=O)NCC(=O)Nc2ccc(F)cc2)cc1OC | 0.171%
18 | C/C=C/C=N/Nc1nc(C)cc(=O)[nH]1 | -3.9%
19 | O=C(CN1C(=O)/C(=C/c2ccc(Cl)cc2)SC1=S)NC1C=CS(=O)(=O)C1 (stereo not shown) | 9.98%
20 | COc1cc(/C=N/NC(=O)c2nonc2C)ccc1O | 27.5%
21 | N#CCSc1nc(Nc2ccc3c(c2)OCO3)c2ccccc2n1 | -2.16%
22 | COc1ccc(-c2nc(CC(=O)O)cs2)cc1OC | 21.3%
23 | O=C(NNC(=O)c1ccccc1-n1cccc1)c1ccc(Cl)cc1Cl | -7.83%

Row | Compound | hERG current change (%, negative = inhibition) at 10uM
24 | COc1cccc(-c2cccc(NC(=O)C3CCN(Cc4ccc(CO)o4)CC3)c2)c1 | -32.5%
25 | CCCCNC(=O)C1CCN(S(=O)(=O)c2ccc3c(c2)CC(C)N3C(=O)C2CC2)CC1 (stereo not shown) | 1.16%
26 | c1ccc(-c2csc(Nc3nc(N4CCOCC4)nc(N4CCOCC4)n3)n2)cc1 | 6.59%
27 | CC(Oc1ccccc1)C(=O)NC1=NCCS1 (stereo not shown) | 8.52%
28 | CC(=O)Nc1cccc(C(=O)Nc2ccccc2C(=O)O)c1 | 7.39%
29 | Cc1ccc(C)c(NC(=S)NNC(=O)c2ccco2)c1 | 10.2%
30 | COc1ccc(OC)c(/C=N\NC(=O)c2c(C)nc3cc(C)ccn23)c1 | -31%
31 | CCn1c(C)nnc1SCC(=O)Nc1ccccc1Cl | 4.99%
32 | CC(C)NCC(O)COc1ccc(CCOCC2CC2)cc1.Cl (stereo not shown) | -8.64%
33 | CC1=CC2=NC(=O)/C(=C\c3cccn3CCOc3ccccc3C)C(=N)N2O1 | 19.4%
34 | COc1ccc(C(=O)COC(=O)CNC(=O)c2cccc(OC(F)F)c2)cc1 | -64.6%
35 | O=C(NCC1CC1)C1CCCN(S(=O)(=O)c2ccc(-n3cnnn3)cc2)C1 (stereo not shown) | -63.7%
36 | O=C(O)c1cc2ccccc2oc1=O | -3.63%
37 | COc1ccc(CC(=O)O/N=C(\N)c2ccccn2)cc1 | -0.445%
38 | CC(=O)Nc1cc(NC(C)=O)c(N=Nc2ccccc2)cc1C | 8.41%
39 | CC1Cc2ccccc2N1CC(=O)NC(=O)NC1CCCCC1 (stereo not shown) | -8.93%
40 | Nc1ncc(N=Nc2cc(C(=O)O)ccc2Cl)s1 | 4.47%
41 | CCCCn1c(N)c(N(CC(C)C)C(=O)C2CC(=O)N(c3ccc4c(c3)OCCO4)C2)c(=O)[nH]c1=O (stereo not shown) | 8.32%
42 | Cc1ccc(NC(=O)CSC2=C(C#N)C(c3ccc4c(c3)OCO4)CC(=O)N2)cc1C (stereo not shown) | 0.529%
43 | NCCCC[C@H]1CNC(=O)C(=O)N1CCCCC1CCCCC1 | 17.4%
44 | CC(C)N1CCN(Cc2cccn2-c2nccs2)CC1CCO (stereo not shown) | 10.2%
45 | O=C(COC(=O)c1c[nH]c2ccccc12)NC1CCCC1 | 7.16%
46 | COc1cc(/C=N/NC(=O)CCC(=O)NC2CCCCC2)ccc1C | -10.2%

Row | Compound | hERG current change (%, negative = inhibition) at 10uM
47 | Cc1ccc(NC(=O)CN(C)C(=O)COC(=O)C2=COCCO2)cc1 | 15.1%
48 | CCCCCN(C(=O)CCC(=O)OCc1ccccc1Cl)c1c(N)n(CCCC)c(=O)[nH]c1=O | -49.8%
49 | CCc1ccccc1NC(=S)N(Cc1cccs1)C1CCCC1 | 7.22%
50 | Cc1ccc(-n2nc3c(N4CCC(C(=O)N5CCC(C(N)=O)CC5)CC4)nnc(C)c3c2C)cc1 | 12%
51 | O=C(Cc1ccccc1)NCC(=O)N1CCc2ccccc2C1 | 1.51%
52 | O=C(Nc1cccc(Cl)c1)c1c(O)c2c(n(Cc3ccco3)c1=O)CCCC2 | 5.45%
53 | Cc1ccc(NC(=O)CSc2ccc(-c3ccco3)nn2)c(C)c1 | -24.4%
54 | CCOC(=O)N1CCN(C(=O)c2ccc3c(=O)n(CCC4=CCCCC4)c(=S)[nH]c3c2)CC1 | 15.4%
55 | O=C(NNC(=O)c1cccnc1SCc1cccc([N+](=O)[O-])c1)c1cccnc1 | -10.1%
56 | O=C(COC(=O)/C=C/c1ccccc1Cl)NCc1ccccc1 | -11.1%
57 | CCCNS(=O)(=O)c1ccc(OCC(=O)NCC2CCCO2)cc1 (stereo not shown) | 29.8%
58 | Cc1c(OCc2ccccc2)c(=O)ccn1Cc1ccccc1 | -10.2%
59 | CN(CC(=O)Nc1ccc(F)cc1[N+](=O)[O-])Cc1ccccc1 | 23.7%
60 | CN(CC(=O)Nc1cccc(F)c1)C(=O)/C=C/c1ccc2ccccc2n1 | 7.19%
61 | CCc1cc[n+](CC(=O)Nc2ccc(Cl)cc2Cl)cc1.[Cl-] | -4.73%
62 | C=CCn1c(C)cc(C(=O)COC(=O)/C=C/c2ccc(OC)cc2)c1C | 12.3%
63 | COc1ccccc1OCC(=O)Nc1ccc(Cl)cc1 | -8.9%
64 | N#Cc1c(N2CCN(C(=O)c3ccccc3)CC2)nc(-c2ccccc2)c2c1CCCC2 | -18.6%
65 | CN1CCC(=O)N([C@H](CO)c2ccccc2)CC1 | 3.76%
66 | C/C(Cl)=C/Cc1c(C)[nH]c2ccc(C)cc2c1=O | 4.26%
67 | CCOC(=O)C1CCN(CCC(=O)Nc2ccccc2)CC1 | -19.7%
68 | Cc1cc(C(F)F)n2ncc(C(=O)NCCc3ccc(Cl)cc3)c2n1 | -45%
69 | CCc1cccc(OCCn2nc(C(=O)O)c3ccccc3c2=O)c1 | 0.597%

Row | Compound | hERG current change (%, negative = inhibition) at 10uM
70 | O=C(CN(C(=O)CNC(=O)c1cccs1)c1ccccc1F)NC1CCCC1 | 10.6%
71 | O=C(CC1SC(N2CCCC2)=NC1=O)Nc1ccc(C(=O)N2CCCC(C(F)(F)F)C2)cc1 (stereo not shown) | 18.8%
72 | COCC(C)N1C(=O)Cc2c1nc(N)c1c(N)nc(N3CCN(c4ccccc4F)CC3)c(C#N)c21 (stereo not shown) | -13.1%
73 | Nn1c(Cc2cccc3ccccc23)nnc1SCn1nnc2ccccc2c1=O | -1.1%
74 | CNc1nnc(-c2cccc(N(C)C)c2)s1 | 2.36%
75 | C/C(=N\NC(=O)c1ccc(N(C)C)cc1)c1ccc(C)cc1C | -3.46%
76 | O=C(CSc1nnc(CNC(=O)c2ccccc2)o1)Nc1ccc2c(c1)OCO2 | -3.52%
77 | CCOC(=O)C1CCCN(Cc2nc(N)nc(Nc3ccc(Cl)cc3)n2)C1 (stereo not shown) | -79%
78 | O=c1c(-c2ccc(O)cc2)coc2cc(O)ccc12 | 13.2%
79 | CCOc1ccc(C(=O)Nc2nnc(C(C)C)s2)cc1OCC | 6.54%
80 | CCCC/C(O)=C/c1nc2ccccc2[nH]c1=O | 5.3%
81 | Cc1nn(-c2ccc(F)cc2)c(Cl)c1/C=C/C(=O)OCC(=O)Nc1ccc(F)cc1F | 15.5%
82 | Clc1ccc(/C=N/N2CCCCC2)cc1 | 7.36%
83 | O=C(Cc1cccs1)NCCc1cn2ccccc2n1 | -11.7%
84 | CN1CCC2(CC1)NC(=O)NC2=O | -6.06%
85 | COc1cc(C=C2C(=O)OC(c3ccccc3)OC2=O)cc(Br)c1O (stereo not shown) | 10.9%
86 | Cc1nn(C)c(C(=O)NNC(=S)NCc2ccco2)c1Cl | 7.69%
87 | COc1ccccc1CCNC(=O)c1nccnc1C(=O)O | 21.6%
88 | Cc1ccc(C)c(S(=O)(=O)N2CCN(C(=O)CSc3ccccc3F)CC2)c1 | -14.7%
89 | Cc1cccc(C(=O)NCc2ccc(S(N)(=O)=O)cc2)c1[N+](=O)[O-] | -5.81%
90 | COC(=O)C1=C(c2ccc(F)cc2F)C[C@@H]2CC[C@H]1N2C(=O)N1CCC(C)CC1 | -6.57%
91 | COc1ccc(OC)c(-n2c(-c3cc(-c4ccc(F)cc4)n[nH]3)n[nH]c2=S)c1 | 20.6%

Reference: article PMC4336329 (PLoS ONE, 2015)
